Measured values reported in the RNAGym collection of RNA variant scans (doi:10.1073/pnas.2313332121).
Variants at the floor of the assay are shown more often than the library holds them.

B1: TPR 5TU (parent)
chain: GGAUCUUCUCGAUCUAACAAAAAAGACAAAUCUGCCACAAAGCUUGAGAGCAUCUUCGGAUGCAGAGGCGGCAGCCUUCGGUGGCGCGAUAGCGCCAACGUUCUCAACUAUGACACGCAAAACGCGUGCUCCGUUGAAUGGAGUUUAUCAUG

Variants of: B1
Assay: polymerase ribozyme fitness, log enrichment relative to wild type (log ratio); higher = more active; in vitro selection for triplet polymerase activity
How it was run: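 Frozen incubation at −7 °C formed the core of a single, triplicate in vitro selection round applied to PCR-built, transcribed mutant libraries of each subunit of a heterodimeric triplet polymerase ribozyme. Extended constructs were gel-excised, captured with streptavidin beads and amplified by RT-PCR, and input and output libraries were Illumina-sequenced with a filter of ≥10 input reads and ≥1 read per output. Fitness is the logarithm of genotype enrichment relative to wild-type enrichment, with inverse-variance-weighted replicate averaging, and the logarithm is base 2.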

Variant | polymerase ribozyme fitness (log ratio)
C54U C99G U101G A142U | -3.57
U55C C63U C85G A107U A142U U145A | ≤ -4.2
C54G C63U C69G A89U C93A G117A A120C G124C | ≤ -4.2
C54A C87U | -3.48
U55A G126U | -0.31
U55A A138U | -3.9
U55A G84U G128U U134C | -4.17
U53A G68U C76G U130A C132U G136A A142U | ≤ -4.2
U55C C76G G92A C114G A115U | ≤ -4.2
U53A C96U C103U | -1.14
C54U C114A A137U | -3.59
U55A U56A C93U A138G | ≤ -4.2
C54U C76U C87A A107G | ≤ -4.2
U55A C114A | -3.44
U55A C114U | -2.21
C54U A89U C95G C99A | ≤ -4.2
U53A U55A C72U A89C U109C | ≤ -4.2
C54G C85U C96G G112C U130A A142G C149A | ≤ -4.2
C54A U61A G74A | ≤ -4.2
U53G G71A A110G | ≤ -4.2
C54U G65C C93A C96G | ≤ -4.2
U53G C93G C116G G124U G141A U148G | ≤ -4.2
U55A A97U | -0.916
U55A C63G A121U | -0.282

Variant | polymerase ribozyme fitness (log ratio)
U53A U56G G71U G140U | ≤ -4.2
C54A U56G G88C C96U | ≤ -4.2
C54G A60C G83A A107U C116A G117A G126A U139A | ≤ -4.2
U55A U101G | -0.568
U55A U78G G84U C87G C118U | ≤ -4.2
U53A U109G | -0.777
U53A G65U G83C C103U A110G U111G G126A | ≤ -4.2
U55C U56C G59C C75G G84U G133U | ≤ -4.2
U55C C79A A89G U139A A142C | ≤ -4.2
U55C C85G | -1.66
C54G G59A G74A G88U C95A G141C G143U | ≤ -4.2
U55A U56G C63A C87A G88U U148G G152U | ≤ -4.2
C54A A150G | -3.37
C54U G65A C85U A89G U146G | -4.13
C54G U55G | ≤ -4.2
U55A U82G G83A C99U C103A | ≤ -4.2
U55A C132A A137G G143A U146G | ≤ -4.2
C54U C85G C87U A106U C114U A147C | ≤ -4.2
C54G G68C G80A G94U A98G | ≤ -4.2
C54A C79G G128A | ≤ -4.2
C54A G65U G88U U135A U145A | ≤ -4.2
C54U A73G | -0.166
C54U U55A C85G A91G G152U | ≤ -4.2
U55A A64U C85U | ≤ -4.2

Variant | polymerase ribozyme fitness (log ratio)
U55G A64G G67C | ≤ -4.2
U53A U55A G83U C123A G128U A147U | ≤ -4.2
U55G A73U A122G G126C | -1.69
C54U A150G | -0.995
C54U G143A | -0.736
C54A G94U A97C C125G | -2.89
U55A U56A C57G C72A C114A C149G | ≤ -4.2
U53G C118U | -1.68
U55A A73G A89G G136A | -0.934
U53A U55G U61A C85U A106U A147C | ≤ -4.2
U53G U55A A60U C75G G94C | ≤ -4.2
U55A C79G G81A | -4.18
U53A U61A U109G | -2.25
U53A C54A G58A C85U | -0.519
U55A A73G | -0.446
C54A G58A G65C A91C U139G | ≤ -4.2
U53A C96U C105G G112C U146C | ≤ -4.2
U55C U61G U82G G88U C95U C103A C125A U151A | ≤ -4.2
U53A G58C A150U | 0.575
U55A A73C C87G A98G U109A U111G C131U C132G | ≤ -4.2
U55G A73U | -2.35
U53C C54G A66G C96A C125A A137C U144G | ≤ -4.2
C54G C87G C103A C129G C132U | ≤ -4.2
U55A C76G A138C | ≤ -4.2

Variant | polymerase ribozyme fitness (log ratio)
U53A C57U A60G C95U U104C A110C | ≤ -4.2
C54G C75U C95U A147C | -3.31
U55A C76G C96U | ≤ -4.2
U53A U55A U102G U111A C129U | ≤ -4.2
C54G A91C U139A | ≤ -4.2
U53A U77G U148A A150C | ≤ -4.2
C54A A97U | -1.79
U53A U56C G141U | -0.733
U55G A60U G83C A137U G141U | ≤ -4.2
U55A C69U G94C | -3.36
U55A G71A U77C C95U A113C C149G | ≤ -4.2
U55A C57A G81A G92A U104C U134G G141C | ≤ -4.2
U53A G80U C96A G143A U146C C149G | ≤ -4.2
C54A U56C G71C G88U C96G A120U C125A G141A | ≤ -4.2
C54A C85G U127C U135G | ≤ -4.2
U55A A89C C96G U102C C108U C114U | ≤ -4.2
U53G C79U A89U | ≤ -4.2
C54A U55A A60C C93U A119C U148G | ≤ -4.2
C54U C95A G126U U148A | ≤ -4.2
C54U U56C | -0.57
U55G G68U G133C A138G | ≤ -4.2
U55A C87U U90C | ≤ -4.2
U53A G58C A73U C95A | ≤ -4.2
U55A A66G C75A U78G G81A A122U | ≤ -4.2

Variant | polymerase ribozyme fitness (log ratio)
U53G C87U A113U C116A G140U | ≤ -4.2
U55A A60U G84U C116G A119U | -2.63
C54U G94U U111G G128C | ≤ -4.2
U53A G143C | -2.05
U55A U144G | 0.364
U53A G83C C125A G141U | ≤ -4.2
U55A A91C A97U A106U | ≤ -4.2
U55G A60G C79U A119C | -2.12
U53A C125A G141C | ≤ -4.2
C54A G81C | -0.408
U53C A64G U90C G117C | ≤ -4.2
U55A U61A C79A G83A U90G G143A | ≤ -4.2
C54U G71C A107C C108U | ≤ -4.2
C54U U55G U61G G92A | ≤ -4.2
U55G A60C C75A G80C | ≤ -4.2
C54A U148C | -3.69
C54U G62C C69U U82G C96U U102G U139G | ≤ -4.2
U53A G88C | ≤ -4.2
U55A U61A A97C C103A C125A | ≤ -4.2
U53G U77G C129A A147C | ≤ -4.2
U53A G67U C93A | ≤ -4.2
U53A G81C C87U C123A | -1.74
C54A G88U C93U | ≤ -4.2
U55A G84U | -2.28

Variant | polymerase ribozyme fitness (log ratio)
U55A C76U C93U C95U G143A | -2.72
U53A G68C C85U G92U A119C | ≤ -4.2
U55A U61A C93U C103A | ≤ -4.2
U55A U61G C72U C93U | ≤ -4.2
C54U G86U U102C G143U | ≤ -4.2
U53G A60C U61A G74C U78G G92U A98U A106G | ≤ -4.2
C54A C76U G88C U135A A138C | ≤ -4.2
U53G C54G | ≤ -4.2
U53A C103A A137G | ≤ -4.2
C54U C96A C105U | 0.0167
U55G C57A C69U U109G C116A | -0.0851
U55A A66U G74A C75A C79G G88C C95G A137U | ≤ -4.2
C54U C96U A115C U127C U144C | ≤ -4.2
U53A C54A A91U | ≤ -4.2
C54U C69U G80A U82G G83U | ≤ -4.2
U53A C87A | ≤ -4.2
U55A U127G | -2.72
C54U G59C A97U | -0.658
U55G C87A G141C | -3.74
U53G C93A C95A A97U A98C G100U U130G G140U | ≤ -4.2
C54A G58C A91U C95G A142U | ≤ -4.2
U53A A150C | -3.56
U55A C93U G133U | ≤ -4.2
C54A A66G A89U | ≤ -4.2

Variant | polymerase ribozyme fitness (log ratio)
C54U C72U C93G C103A C114G | ≤ -4.2
C54U G86C A106G U144G U148A | ≤ -4.2
U53A C79A G92A C105U A138U A150U | ≤ -4.2
U53G A110G G117A U148A | ≤ -4.2
C54A A64G U111C G133U G140A G143A | ≤ -4.2
C54U A106G | -0.0717
C54A C149G | -3.71
U55A U56A A106C | -1.06
U53A G62U G67C C72U C93U C114A C125U | ≤ -4.2
C54U C76G C87A C93G C108U U134G | ≤ -4.2
U55A U78C C123G | -0.403
U55A U61G G86U | ≤ -4.2
U53A G58A C69G G88C A106U A122G | ≤ -4.2
C54U C72G G84U A120C G143U | ≤ -4.2
U53A U56A C85U G92C A98C C123U G124U G126C A142U | ≤ -4.2
U53A U56G | -1.11
U55A U61G G70C C87U A137C U145C | ≤ -4.2
C54G U101G C118U | -2.4
C54U C72U | -0.468
C54A G59C G83U C87A C105A C108G | ≤ -4.2
C54G U78G C87A G140A | ≤ -4.2
U55A G94A A97U A107G G124U U134A U135G U139G G140C | ≤ -4.2
C54A C75G C85U U90A C123U | ≤ -4.2
